Assay results from patent US20080114054A1, “Compositions and methods for reducing antimicrobial resistance of microbes” (priority 2006, published 2008).

How the values were obtained:
Listeria = test: Inhibition zone of Listeria colonies exposed to composition of Table 1 in presence of antibiotics; assay type: cell-based; conditions: composition listed in Table 1 in presence of the antibiotic; for Colonies showing a decreasing inhibition zone / Colonies showing increasing inhibition zone / Number of colonies with no change in inhibition zone: 30 colonies; for Percent colonies showing increase in inhibition zone (%): of 30 tested colonies
E. coli = test: Inhibition zone of E. coli colonies exposed to composition of Table 1 in presence of antibiotics
S. saprophyticus = test: Inhibition zone of S. saprophyticus colonies exposed to composition of Table 1 in presence of antibiotics; assay type: cell-based; conditions: composition listed in Table 1 in presence of the antibiotic; for Colonies showing a decrease in inhibition zone / Colonies showing an increase in inhibition zone / Colonies with no change in inhibition zone: 15 colonies; for Percent colonies showing increase in inhibition zone (%): of 15 tested colonies

Compound | Colonies showing a decreasing inhibition zone (Listeria; 1 h) | Colonies showing increasing inhibition zone (Listeria; 1 h) | Number of colonies with no change in inhibition zone (Listeria; 1 h) | Percent colonies showing increase in inhibition zone (%) (Listeria; 1 h) | Colonies showing a decreasing inhibition zone (Listeria; 2 h) | Colonies showing increasing inhibition zone (Listeria; 2 h) | Number of colonies with no change in inhibition zone (Listeria; 2 h) | Percent colonies showing increase in inhibition zone (%) (Listeria; 2 h) | Number of colonies showing a decrease in inhibition zone (E. coli; 1 h) | Number of colonies showing an increase in inhibition zone (E. coli; 1 h) | Number of colonies with no change in inhibition zone (E. coli; 1 h) | Percent colonies showing increase in inhibition zone (%) (E. coli; 1 h) | Number of colonies showing a decrease in inhibition zone (E. coli; 2 h) | Number of colonies showing an increase in inhibition zone (E. coli; 2 h) | Number of colonies with no change in inhibition zone (E. coli; 2 h) | Percent colonies showing increase in inhibition zone (%) (E. coli; 2 h) | Colonies showing a decrease in inhibition zone (S. saprophyticus; 1 h) | Colonies showing an increase in inhibition zone (S. saprophyticus; 1 h) | Colonies with no change in inhibition zone (S. saprophyticus; 1 h) | Percent colonies showing increase in inhibition zone (%) (S. saprophyticus; 1 h) | other results
CC1(C)S[C@@H]2[C@H](NC(=O)[C@H](N)c3ccccc3)C(=O)N2[C@H]1C(=O)O [AMP, Ampicillin] | 6 | 20 | 4 | 66.7 | 6 | 21 | 3 | 70.0 | – | – | – | – | – | – | – | – | – | – | – | – | –
CO/N=C(\C(=O)N[C@@H]1C(=O)N2C(C(=O)O)=C(COC(C)=O)CS[C@H]12)c1csc(N)n1 [CTX, Cefotaxime] | – | – | – | – | – | – | – | – | 3 | 26 | 1 | 86.7 | 5 | 22 | 3 | 73.3 | – | – | – | – | –
CC1COc2c(N3CCN(C)CC3)c(F)cc3c(=O)c(C(=O)O)cn1c23 (centres unmarked) [OFX, Ofloxacin] | – | – | – | – | – | – | – | – | 5 | 20 | 5 | 66.7 | 8 | 17 | 5 | 56.7 | – | – | – | – | –
CN(C)[C@@H]1C(O)=C(C(N)=O)C(=O)[C@@]2(O)C(O)=C3C(=O)c4c(O)cccc4[C@@](C)(O)[C@H]3C[C@@H]12 [TE, Tetracycline] | 2 | 26 | 2 | 86.7 | 2 | 26 | 2 | 86.7 | – | – | – | – | – | – | – | – | 0 | 8 | 7 | 53.3 | Colonies showing a decrease in inhibition zone (S. saprophyticus; 2 h): 0; Colonies showing an increase in inhibition zone (S. saprophyticus; 2 h): 8; Colonies with no change in inhibition zone (S. saprophyticus; 2 h): 7; Percent colonies showing increase in inhibition zone (%) (S. saprophyticus; 2 h): 53.3%
CN[C@H](CC(C)C)C(=O)N[C@H]1C(=O)N[C@@H](CC(N)=O)C(=O)N[C@H]2C(=O)N[C@H]3C(=O)N[C@H](C(=O)N[C@H](C(=O)O)c4cc(O)cc(O)c4-c4cc3ccc4O)[C@H](O)c3ccc(c(Cl)c3)Oc3cc2cc(c3O[C@@H]2O[C@H](CO)[C@@H](O)[C@H](O)[C@H]2O[C@H]2C[C@](C)(N)[C@H](O)[C@H](C)O2)Oc2ccc(cc2Cl)[C@H]1O [V, Vancomycin] | – | – | – | – | – | – | – | – | – | – | – | – | – | – | – | – | 2 | 8 | 5 | 53.3 | Colonies showing a decrease in inhibition zone (S. saprophyticus; 2 h): 1; Colonies showing an increase in inhibition zone (S. saprophyticus; 2 h): 10; Colonies with no change in inhibition zone (S. saprophyticus; 2 h): 4; Percent colonies showing increase in inhibition zone (%) (S. saprophyticus; 2 h): 66.7%
Trimethoprim-Sulfamethoaxzole [SXT] | 0 | 30 | 0 | 100 | 0 | 30 | 0 | 100 | – | – | – | – | – | – | – | – | – | – | – | – | –
